# Measured values from PubChem BioAssay AID720709 (National Center for Advancing Translational Sciences (NCATS), 2013).
# The whole screen tested about 360,000 compounds, of which about 520 (0.14%) were called active. The inconclusive results got no clear call from the source; some entries with a clear call stand among them for comparison. Calls come from the whole dose curve; as a rule, active = well fitted inhibition curve with a large enough effect; inconclusive = small, poorly fitted or top-dose-only effect; inactive = no such curve, though single readings can be large or run the other way. Potencies of inconclusive entries are left out as doubtful fits.
# Target: Rap guanine nucleotide exchange factor 3 (Homo sapiens) (UniProt O95398)
# Experiment: qHTS for Antagonist of cAMP-regulated guanine nucleotide exchange factor 3 (EPAC1): primary screen; note: nearly all actives have a fitted effect of over 50% in size;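 for activity change, negative = inhibition: plate controls were vehicle for no effect and positive control for full effect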
# Details: EPAC1 GEF assay, Rap1b-BODIPY-GDP exchange fluorescence; activity change, negative = inhibition: at 115 µM (top of the series)
# Potency is the fitted concentration of half-maximal effect; tags give direction and shape of the fitted curve.
# Chain of UniProt O95398 (O95398 whole entry, looked up): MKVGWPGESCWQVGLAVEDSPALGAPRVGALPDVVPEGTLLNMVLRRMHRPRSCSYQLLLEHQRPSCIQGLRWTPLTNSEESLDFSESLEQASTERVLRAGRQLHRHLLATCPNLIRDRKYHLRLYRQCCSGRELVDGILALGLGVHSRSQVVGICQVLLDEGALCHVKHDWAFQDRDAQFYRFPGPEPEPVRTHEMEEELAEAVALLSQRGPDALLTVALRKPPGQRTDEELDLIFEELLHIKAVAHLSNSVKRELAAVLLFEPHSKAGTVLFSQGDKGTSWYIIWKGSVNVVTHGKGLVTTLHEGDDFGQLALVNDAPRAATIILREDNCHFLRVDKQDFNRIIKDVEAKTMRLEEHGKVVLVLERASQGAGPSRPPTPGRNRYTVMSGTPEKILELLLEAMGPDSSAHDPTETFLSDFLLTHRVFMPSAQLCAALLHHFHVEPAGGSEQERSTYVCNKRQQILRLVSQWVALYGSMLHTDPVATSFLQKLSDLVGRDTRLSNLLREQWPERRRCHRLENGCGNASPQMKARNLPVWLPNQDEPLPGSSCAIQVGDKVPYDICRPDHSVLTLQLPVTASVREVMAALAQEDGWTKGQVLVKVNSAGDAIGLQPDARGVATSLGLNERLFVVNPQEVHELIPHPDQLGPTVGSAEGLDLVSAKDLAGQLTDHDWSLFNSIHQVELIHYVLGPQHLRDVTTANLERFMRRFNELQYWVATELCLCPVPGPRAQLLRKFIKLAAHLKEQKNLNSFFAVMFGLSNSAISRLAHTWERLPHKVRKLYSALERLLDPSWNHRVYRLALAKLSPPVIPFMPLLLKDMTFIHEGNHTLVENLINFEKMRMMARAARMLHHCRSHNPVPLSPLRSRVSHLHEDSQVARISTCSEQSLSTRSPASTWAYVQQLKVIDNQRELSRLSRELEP
Structure (SMILES),Potency,"activity change, negative = inhibition"
CN(CC(=O)Nc1ccc(F)cc1)C(=O)COc1ccc(C(=O)c2ccccc2)cc1,"inconclusive [inhibitor, partial curve, poor fit]",
O=C(NCC[C@H]1CC[C@@H](NC(=O)C2CCC2)[C@@H](CO)O1)c1cc(Cl)cc(Cl)c1,inactive,
O=C(CSc1ccccn1)c1ccc2c(c1)OCO2,inactive,
COc1cccc(NC(=O)Cn2c3ccc(F)cc3c3nc4n(c(=O)c32)CCCS4)c1,"inconclusive [inhibitor, full curve, poor fit]",
CCC(C)N(CC(=O)Nc1cccc(C)c1C)C(=O)CCl (stereo not given),"inconclusive [inhibitor, partial curve]",
COc1cc2c(cc1OC)[C@@H](Cc1ccc(OCCC#N)cc1)N(C)CC2,"inconclusive [inhibitor, single point]",
Cc1ccc(C2=CSC3=NNC4(CCCCC4)NN23)cc1,"inconclusive [inhibitor, single point]",
COc1ccc(CCNC(=O)CSc2nn3c(=O)c(C)nnc3s2)cc1OC,"inconclusive [inhibitor, full curve, poor fit]",
Nc1nonc1-n1nnc(C(=O)N/N=C/c2cccc(Cl)c2)c1-c1cccs1,"inconclusive [inhibitor, partial curve]",
O=c1ccc(-c2ccc(S(=O)(=O)N3CCCCC3)o2)n[nH]1,"inconclusive [inhibitor, partial curve]",
CSc1nc2nc(Cl)c(Cl)nc2[nH]1,inactive,
CCOc1ccc(/C=N/n2c(SC)nnc(C(C)(C)C)c2=O)cc1,inactive,
CC(=O)N/C(=C\c1ccccc1)C(=O)OCCCOC(=O)/C(=C/c1ccccc1)NC(C)=O,"inconclusive [inhibitor, partial curve, poor fit]",
O=C(/C=C/Nc1ccc(F)cc1)c1cccs1,"inconclusive [inhibitor, single point]",
CC1(OC(=O)C2CCCC2)C(=O)C=C2C=C(c3ccsc3)N(Cc3ccco3)C=C2C1=O (stereo not given),"inconclusive [inhibitor, partial curve]",
Cc1cc(C(=O)CS(=O)(=O)c2ccc(F)cc2)cc(C)c1O,"inconclusive [inhibitor, single point]",
c1cnc(NCCSSCCNc2ncccn2)nc1,inactive,
O=C(NCc1ccccc1)c1noc2c1CCCC2,inactive,
Nc1nc(Br)c2ccccc2c1-c1ccccc1,inactive,
C[C@@H]1CN([C@H](C)CO)C(=O)c2c(c3ccccc3n2C)-c2ccccc2CO[C@H]1CN(C)C(=O)Nc1ccccc1,inactive,
Cc1cc2c(cc1S(=O)(=O)N1CCc3ccccc31)NC(=O)CO2,"inconclusive [inhibitor, full curve, poor fit]",
CCOc1ccccc1C(=O)Nc1cc2c(cc1N1CCCC1)n(CC)c(=O)n2CC,"inconclusive [inhibitor, full curve]",
O=S(=O)(c1cnc[nH]1)N1CCN(C(c2ccc(F)cc2)c2ccc(F)cc2)CC1,"inconclusive [inhibitor, full curve, poor fit]",
CCOC(=O)C1CCN(S(=O)(=O)c2cc(F)ccc2OC)CC1,"inconclusive [inhibitor, single point]",

Structure (SMILES),Potency,"activity change, negative = inhibition"
Clc1ccc2nnc(Cl)n2n1,inactive,
Cc1ccc(NC(=S)NNc2ccc(C(=O)O)cc2[N+](=O)[O-])cc1C,inactive,
COc1ccc(C2C=C(c3ccc(C)cc3)Nc3ncnn32)cc1 (stereo not given),"inconclusive [inhibitor, full curve, poor fit]",
COc1cccc(/C=C2\SC(=S)NC2=O)c1OS(=O)(=O)c1ccc(NC(C)=O)cc1,active: 79.4 µM,
COc1cccc(/C=C2\SC(N)=NC2=O)c1OS(=O)(=O)c1ccccc1,inactive,
O=C(NCc1ccccc1)c1cc(C2CCCCN2C(=O)OCCF)on1 (stereo not given),inactive,
CS(=O)(=O)c1ccccc1C(=O)Nc1ccc(-c2nc3ccccc3[nH]2)cc1,,inconclusive: -14.5% [inhibitor]
COC(=O)C1=NNC2(c3ccc(Cl)cc3)C(=O)N(c3ccccc3)C(=O)C12 (stereo not given),inactive,
Cn1nc(C(=O)OCCN2C(=O)c3ccccc3C2=O)c2ccccc2c1=O,"inconclusive [inhibitor, single point]",
C[C@H](CO)N1C[C@H](C)[C@@H](CN(C)Cc2ccc3c(c2)OCO3)Oc2c(NC(=O)C3CCCCC3)cccc2C1=O,inactive,
COc1ccc(-c2csc(C3=C(O)CN(CCCN4CCCC4=O)C3=N)n2)cc1OC,inactive,
Clc1cccc(Cl)c1CSc1cc2c(nn1)-c1ccccc1CC2,inactive,
COc1ccc(CN(CCC(c2ccccc2)c2ccco2)C(=O)c2ccco2)cc1 (stereo not given),"inconclusive [inhibitor, partial curve]",
O=C(NCc1cccnc1)c1ccc(S(=O)(=O)Nc2ccccc2)cc1,"inconclusive [inhibitor, single point]",
O=C(C[n+]1ccccc1)N/N=C/c1ccc(Cl)c(Cl)c1,"inconclusive [inhibitor, single point]",
O=[N+]([O-])c1ccc(/C=N/Nc2ncc(-c3ccccc3)cn2)cc1,inactive,
O=C(Cc1ccccc1)O/N=C1\CCCc2ccccc21,"inconclusive [inhibitor, single point]",
COc1ccc(-n2c(C)cc(C(=O)COC(=O)c3ccc(O)cc3O)c2C)cc1,inactive,
O=C(O)COc1c(Cl)cc(/C=C2\NC(=O)NC2=O)cc1Br,inactive,
Cc1nn(Cc2ccccc2)c(C)c1/C=N/NC(=O)c1ccccc1O,"inconclusive [inhibitor, partial curve, poor fit]",
CCc1nc(SCC(=O)NC2CC2)c2c(C)c(C)sc2n1,"inconclusive [inhibitor, single point]",
CCOC(=O)[C@]12CCCC=C1N(Cc1ccccc1)C(=O)[C@H](CC(=O)NCc1cccc3ccccc13)C2,"inconclusive [inhibitor, partial curve]",
Cc1cc2c(cc(C(=O)OCC(=O)NC3CCCCC3)n2C)o1,"inconclusive [inhibitor, partial curve]",
CCOC(=O)c1sc(NC(=O)c2cc(-c3ccc(C)cc3)nc3ccccc23)c(C#N)c1C,inactive,

Structure (SMILES),Potency,"activity change, negative = inhibition"
COc1cccc(C(=O)NNC(=S)NC2CCCCC2)c1,active: 50.1 µM,
Cc1c(N=Cc2cc(Br)cc(Br)c2O)cccc1C(=O)O,"inconclusive [inhibitor, single point]",
Cc1nn(CC(C)C)c(Cl)c1C(=O)N(C)CC(=O)Nc1ccc(Cl)cc1,inactive,
O=C(COC(=O)/C=C/c1ccc(F)cc1)Nc1ccc2[nH]c(=O)[nH]c2c1,"inconclusive [inhibitor, partial curve]",
COC(=O)c1sccc1N/C=C(\C#N)S(=O)(=O)C(C)(C)C,"inconclusive [inhibitor, full curve, poor fit]",
CCC(=O)c1ccc(OCC(O)Cn2nnc3ccccc32)cc1 (stereo not given),"inconclusive [inhibitor, single point]",
O=C1C(Nc2cccc(O)c2)=C(N2CCCCC2)C(=O)c2ccccc21,inactive,
CCOc1cccc(NC(=O)CSc2sc3c(O)cc(=O)[nH]c3c2C#N)c1,"inconclusive [inhibitor, partial curve, poor fit]",
CC1(Cc2cccc(F)c2)C(=O)Nc2ccc(-c3cccnc3)cc21 (stereo not given),inactive,
O=[N+]([O-])/C(C(=C(Cl)Cl)N1CCN(Cc2ccccc2)CC1)=C1\NCCN1Cc1ccc(Cl)nc1,"inconclusive [inhibitor, single point]",
CCC1CCCCN1S(=O)(=O)c1ccc(C(=O)Nc2nnc(-c3ccccc3Cl)o2)cc1 (stereo not given),"inconclusive [inhibitor, single point]",
CN1C(=O)C(C)(C)c2cc(S(=O)(=O)N3CCN(c4ccc(F)cc4)CC3)ccc21,inactive,
Cc1c(Cc2ccccc2)c(=O)oc2c(O)c(O)ccc12,"inconclusive [inhibitor, partial curve]",
O=[N+]([O-])c1c(NCCCO)cc(Sc2nc3ccccc3s2)c2nonc12,inactive,
CCCCOC(=O)C1=C(N)N2C(=O)C(C)SC2=C(C(=O)OCC)C1c1ccc(O)c(OC)c1 (stereo not given),"inconclusive [inhibitor, full curve, poor fit]",
Clc1cccc(Cl)c1C1Nc2cccc3cccc(c23)N1,"inconclusive [inhibitor, full curve, poor fit]",
COc1ccc(CNC(=O)CN(C(=O)c2snc(C(N)=O)c2N)c2cccc(F)c2)cc1,"inconclusive [inhibitor, single point]",
CC(=O)N1CCCc2cc(S(=O)(=O)Nc3ccc4c(c3)OCO4)ccc21,"inconclusive [inhibitor, single point]",
CCOCC(=O)Nc1ccc([N+](=O)[O-])cc1Cl,"inconclusive [inhibitor, single point]",
CCC(Sc1nc2ccccc2s1)C(=O)Nc1cc(C)on1 (stereo not given),"inconclusive [inhibitor, single point]",
COc1cc(NC(=O)c2ccc3c(SCC(=O)O)c4c(nc3c2)CCCC4)cc(OC)c1OC,inactive,
COc1cccc(-c2cccc(NC(=O)C3CCN(Cc4ccon4)CC3)c2)c1,"inconclusive [inhibitor, partial curve]",
